Laboratory results taken from article PMC4336329 (PLoS ONE, 2015).
About 14,000 (4.5%) of roughly 310,000 compounds showed an effect of 50% or more. The effect is printed as a negative number. This is one part of the list.

These molecules were tested against human ether-à-go-go-related gene (hERG) potassium channel (human, UniProt Q12809) (assay: primary screen, population patch clamp on CHO cells stably expressing hERG).
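Also: peak tail current of the secondary pulse compared with the same well before compound.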

human ether-à-go-go-related gene (hERG) potassium channel, sequence (Q12809 whole entry, looked up): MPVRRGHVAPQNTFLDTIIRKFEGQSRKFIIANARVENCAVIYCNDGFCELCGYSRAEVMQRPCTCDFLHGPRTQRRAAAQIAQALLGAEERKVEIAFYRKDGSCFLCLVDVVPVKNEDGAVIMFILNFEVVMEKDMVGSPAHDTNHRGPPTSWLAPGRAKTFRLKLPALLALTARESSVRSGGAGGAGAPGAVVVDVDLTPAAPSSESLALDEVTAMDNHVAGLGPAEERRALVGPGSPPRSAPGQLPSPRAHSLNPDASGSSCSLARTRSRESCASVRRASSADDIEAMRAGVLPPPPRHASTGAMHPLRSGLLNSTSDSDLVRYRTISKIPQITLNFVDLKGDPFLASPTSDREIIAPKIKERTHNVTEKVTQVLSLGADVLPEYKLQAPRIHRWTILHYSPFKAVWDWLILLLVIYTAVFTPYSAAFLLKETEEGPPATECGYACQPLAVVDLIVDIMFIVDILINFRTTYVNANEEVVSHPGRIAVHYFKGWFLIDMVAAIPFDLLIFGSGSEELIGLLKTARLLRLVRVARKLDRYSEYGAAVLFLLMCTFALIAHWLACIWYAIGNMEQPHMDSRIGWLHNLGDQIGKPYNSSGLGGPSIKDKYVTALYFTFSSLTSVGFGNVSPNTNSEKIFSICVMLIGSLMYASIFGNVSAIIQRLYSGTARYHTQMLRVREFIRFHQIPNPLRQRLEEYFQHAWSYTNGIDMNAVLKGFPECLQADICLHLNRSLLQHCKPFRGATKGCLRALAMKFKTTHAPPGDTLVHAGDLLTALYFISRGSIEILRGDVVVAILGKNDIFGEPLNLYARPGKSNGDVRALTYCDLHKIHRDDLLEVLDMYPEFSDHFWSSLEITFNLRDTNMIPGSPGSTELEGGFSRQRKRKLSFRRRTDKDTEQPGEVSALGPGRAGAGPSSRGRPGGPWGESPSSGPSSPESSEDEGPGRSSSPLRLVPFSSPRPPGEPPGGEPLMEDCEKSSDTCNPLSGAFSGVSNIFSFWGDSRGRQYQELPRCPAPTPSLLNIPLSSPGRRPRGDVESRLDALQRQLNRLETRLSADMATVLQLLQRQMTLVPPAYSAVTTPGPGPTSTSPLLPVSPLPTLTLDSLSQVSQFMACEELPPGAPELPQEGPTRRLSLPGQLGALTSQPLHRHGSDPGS

Structure (SMILES) | hERG current change (%, negative = inhibition) at 10uM [%]
CC(=O)c1ccc(N2CCN(C(=O)c3cc4c(-c5ccccc5F)nn(C)c4s3)CC2)cc1 | -20.7
COC(=O)C1(C)Nc2ccccc2C(=O)N1c1ccccc1C (stereo not shown) | -4.22
COc1ccc(/C=C/C(=O)O)cc1S(=O)(=O)NCc1cccnc1 | 3.02
O=C(c1cc(COc2ccc(F)cc2Cl)on1)N1CC[C@@H]2CCCC[C@H]2C1 | 12.6
COc1ccc2cc(C(c3nnnn3Cc3ccc(F)cc3)N3CCCCCC3)c(=O)[nH]c2c1 (stereo not shown) | -23.3
O=C(OCCN1C(=O)c2cccc3c(N4CCOCC4)ccc(c23)C1=O)c1ccc(Cl)cc1 | -0.964
Cc1cccc(OCC(=O)NCCCNC(=O)c2ccncc2)c1 | 3.39
CCCCN(CC(O)COc1cccc(C)c1)CC(O)COc1cccc(C)c1 (stereo not shown) | -81.7
COc1ccc(-c2nc(NC(=O)c3nc4nccc(C)n4n3)sc2C)cc1 | 14.1
O=C(CSc1nc2c(c(=O)n1-c1ccc(Cl)cc1)SCC2)Nc1ccc2c(c1)OCCO2 | 2.91
O=C(O)c1cccc2c1C(=O)N(Cc1ccccc1)C2 | -18.3
Oc1ccc(Br)cc1C=Nc1cccn2cc(-c3ccccc3)nc12 | 21.1
CCNC(=S)NS(=O)(=O)c1ccccc1 | 18.7
CCn1nnnc1SCC(=O)Nc1cc(OC)cc(OC)c1 | 11.8
O=C(Nc1cccnc1)c1cc(-c2ccc(Br)cc2)on1 | 13.6
Cc1c(C(=O)N2CCN(c3ccccc3)CC2)oc2c(F)cccc12 | 9.11
COc1cccc(CNC(=O)CCCc2nnc3n(C)c(=O)c4sccc4n23)c1 | -22.2
CCNC(=O)CC1C(=O)N(c2ccc(OC)cc2)C(=S)N1CCc1ccncc1 (stereo not shown) | -30.7
Cc1nccn1Cc1ccc(Cl)nc1 | 16.6
COC(=O)c1ccc(C(=O)N=c2sccn2C)cc1 | -1.71

Structure (SMILES) | hERG current change (%, negative = inhibition) at 10uM [%]
COc1ccc(NC(=O)c2sc3ncn(CC(=O)N4CCN(c5ccccn5)CC4)c(=O)c3c2C)cc1OC | 2.08
CCCN(CCC)CCCNC(=O)C1CCN(S(=O)(=O)c2cccc3nsnc23)CC1 | -4.02
Cc1ccccc1OCC(=O)NNC(=O)c1ccoc1C | 6.75
COc1ccc(-c2c(-c3ccccc3OC)sc3ccccc23)cc1 | 12.3
Clc1ccc(Oc2cnns2)cc1Cl | 0.0504
O=c1oc2c(O)cccc2cc1-c1nc2ccccc2[nH]1 | 12.2
CCOc1ccc(NC(=O)CNC(=O)c2ccco2)cc1 | 22.3
Cc1ccc(NC(=O)c2ccc3nsnc3c2)c(C)c1 | 17.7
C/C(=N\NC(=O)CSCc1ccc([N+](=O)[O-])cc1)c1ccccc1 | -18
CCC1(CC)NC(=O)N(CC(=O)OCC(=O)Nc2ncc(Cl)cc2Cl)C1=O | -4.07
Cn1nnnc1SCC(=O)Nc1c(Cl)cccc1Cl | 10.8
CCOC(=O)N1CCN(C(=O)c2ccc(SC)cc2OC)CC1 | -2.46
Fc1ccccc1COc1cccc(/C=N/n2cnnc2)c1 | -18.6
NC(=O)c1cnccn1 | 10.4
CCOC(=O)C1=C(C)NC(=O)C1CC(=O)Nc1ccccc1 (stereo not shown) | 14.4
COc1cccc(C(=O)NCCSc2c(C)[nH]c3ccccc23)c1OC | -1.27
O=C(NCCCN1CCCC1=O)c1cc(NS(=O)(=O)c2ccc(F)cc2)cc(NS(=O)(=O)c2ccc(F)cc2)c1 | -4.88
O=C(Oc1c(Cl)cc(Cl)c2cccnc12)c1cccc([N+](=O)[O-])c1 | 17.5
Cc1c(Cl)cccc1N=C(N)N=C(N)N | 7.51
O=C1c2ccccc2NC(c2cccnc2)N1c1ccccc1F (stereo not shown) | 6.9

Structure (SMILES) | hERG current change (%, negative = inhibition) at 10uM [%]
COc1cc(-c2nnc(SCC(=O)c3ccc(C)cc3)o2)cc(OC)c1OC | -2.59
CNC(=O)COC(=O)c1cc(F)c(F)cc1Cl | 14.4
O=C(CCNC(=O)c1ccc([N+](=O)[O-])cc1)Nc1cccc(S(=O)(=O)N2CCCCC2)c1 | -55.2
O=C(OCC(=O)N1CCCc2ccccc21)c1cc(Cl)ccc1O | 21.9
Cc1ccc(S(=O)(=O)Nc2nncs2)cc1 | -1.67
CCN(CC)S(=O)(=O)c1ccc(S(=O)(=O)N(CC(=O)Nc2ccccc2)Cc2ccco2)cc1 | -6.44
Cn1c(=O)c2c(-c3ccc(C(C)(C)C)cc3)n(N3CCOCC3)cc2n(C)c1=O | -26.7
COc1cc(OC)cc(C(=O)N[C@H](C(=O)Nc2ccccc2N2CCOCC2)C(C)C)c1 | -28.2
CC1=C(C(=O)OCc2ccccc2)C(c2cccc(F)c2)NC(=O)N1 (stereo not shown) | 9.86
COc1ccc(N2CCN(C(=O)CSc3ncn[nH]3)CC2)cc1 | 5.92
Cc1ccc(C2=NNC(c3ccc(Cl)cc3)=Nc3ccccc32)o1 | -10.7
O=C(NCCOc1ccccc1)c1cc2ccccc2o1 | -2.6
CN1CCN(c2ccncc2S(=O)(=O)N2CCCCC2)CC1 | 14.7
COc1ccc(C(N)CCc2ccco2)cc1.Cl (stereo not shown) | 1.39
Cc1ccc(C(=O)Nc2cc3c(oc2=O)CCCC3=O)cc1 | -2.47
CCOc1cc(N2CCOCC2)c(OCC)cc1NC(=O)Cc1ccc(OC)c(OC)c1 | 2.9
CC1CCc2sc(-c3n[nH]c(=S)o3)cc2C1 (stereo not shown) | 17.7
O=C(c1cccc([N+](=O)[O-])c1)N1CCc2ccccc21 | 17.5
